# According to PubChem BioAssay AID504706 (National Center for Advancing Translational Sciences (NCATS), 2011):
# Among all 320,000 compounds or so, about 200 (0.062%) were called active. Inconclusive results, whose numbers are uncertain, are shown with a selection of clear calls. The call rests on the fitted dose curve; in most records, active means well fitted activation curve with a large enough effect; inconclusive means small, poorly fitted or top-dose-only effect; inactive means no such curve, though single readings can be large or run the other way. Potencies of inconclusive entries are left out as doubtful fits.
# Experiment: qHTS assay for re-activators of p53 using a Luc reporter; further: nearly all actives have a fitted effect of over 45% in size; on activity change, positive = activation: % of control where 0% means no effect
# Details: H1299 p53-A138V BP100-luciferase reporter, luminescence, 24 h; series mostly up to 92.2 µM; activity change, positive = activation: at the top concentration
# Description: The p53 tumor suppressor plays a key role in suppression of tumorigenesis and in human carcinogenesis. It is frequently found inactivated in human cancers, mainly by point mutation. These point mutations are found in a wide variety of human cancers and a majority of them affect the DNA binding domain of the protein. The point mutations either alter native p53 conformation or abolish DNA contact. Additionally, cancer cells with p53 mutations are more resistant to chemo-radiation therapies. In order to find activators to reactivate this important protein, a cell-based screen for p53-dependent luciferase-reporter expression was developed. A p53-null H1299 lung cancer cell line was stably co-transfected with a temperature sensitive p53 mutant, p53-A138V, and a p53-responsive BP100-luciferase reporter. This cell model has previously been characterized in a gene chip profiling experiment for p53 activation. By lowering the culture temperature from 37 deg C (mutant p53 conformation) to 32 deg C (w.t. p53 conformation), a 30-60 fold increase in activation of luciferase activity is observed. At assay temperate, 37 deg C, basal reporter expression is very low and after the addition of detection reagent, a luminescent read-out is carried out. NIH Chemical Genomics Center [NCGC] NIH Molecular Libraries Probe Production Centers Network [MLPCN] MLPCN Grant: DA031088-01A1 Assay Provider (PI): Yi Sung, University of Michigan at Ann Arbor
# 5ul of 1000 cells per well are dispensed in all wells except column 4, into white solid-bottom TC-treated Kalypsys plates. The cells are kept in Opti-MEM and supplemented with 10% FBS and dispensed using a Multidrop (Thermo). Then using the Kalypsys pin-tool, 23nl of compounds are pinned. The compounds are starting concentration at 10mM, with 1:5 dilution, 4 points, and the control compound nocodazole is pinned in column 1 at 25mM, 1:3 dilution, in duplicate, 25mM nocodazole is pinned in column 2. Please note, all concentrations are working concentrations. 5ul of 1pM purified luciferase enzyme is dispensed using the Kalypsys dispenser in column 4. Plates are incubated for 24 hrs at 37 deg C, 5% CO2, and 95% humidity. Then 4ul of the detection reagent Amplite (ABD Bioquest) is added using the Kalypsys dispenser. Plates are incubated for 10 min at ambient room temperature and are then read on the ViewLux (Perkin Elmer) using a clear filter for a luminescent read-out.
# Potency means the concentration at half of the fitted maximal effect; tags describe the fitted curve by direction and shape.
SMILES,Potency,"activity change, positive = activation"
COC(=O)Cn1cc(C(=O)c2ccccc2F)c2ccccc21,"inconclusive [activator, single point]",
O=C(N/N=C/c1c(O)n(Cc2ccccc2)c(=O)[nH]c1=O)c1ccccc1O,active: 31.6 µM,
CCN(CC)C(=O)c1ccc(NC(=O)c2cccc(S(=O)(=O)N3CCN(Cc4ccccc4)CC3)c2)cc1,,inactive: 0.204%
CC(=O)Nc1ccccc1C(=O)OCC(=O)c1ccc2c(c1)OCCO2,"inconclusive [activator, partial curve, poor fit]",
CCOC(=O)C1(CCOc2ccccc2)CCN(Cc2ccc(C)s2)CC1,,inactive: -0.652%
Cc1ccc(S(=O)(=O)N(C)CCCC(=O)N2CCN(c3ccccn3)CC2)cc1,,inactive: -2.75%
CCCCn1c(=O)c(C(=O)NCc2ccc(Cl)cc2)c(O)c2ccccc21,"inconclusive [activator, single point]",
CNP(=S)(NC)OCCOc1ccc(OC)cc1,"inconclusive [activator, single point]",
CCOc1ccc(CN2CCCC(C(=O)c3ccccc3OC)C2)cc1 (stereo not given),,inactive: -80.3%
O=C(NCc1ccccc1)c1cccn(Cc2ccccc2)c1=O,,inactive: -8.21%
CC1(C)CN=C(Nc2nc3ccccc3s2)S1,"inconclusive [activator, partial curve, poor fit]",
O=c1[nH]c(=S)n(C2CC2)c(O)c1/C=N/Nc1ccccc1,"inconclusive [activator, partial curve, poor fit]",
Cc1ccc(NC(=O)c2ncn(CC(=O)NCc3ccc4c(c3)OCO4)n2)cc1C,"inconclusive [activator, partial curve, poor fit]",
CC(Cc1ccccc1)NC(=O)NC(C)Cc1ccccc1 (stereo not given),"inconclusive [activator, partial curve]",
COc1cc([C@@H]2c3cc4c(cc3[C@@H](OC)[C@H]3COC(=O)[C@H]23)OCO4)cc(OC)c1O,,inactive: 0.476%
COc1ccc(CCN)cc1OC,"inconclusive [activator, single point]",
O=C(CSCc1ccccc1)Nc1ccc2c(c1)OCO2,"inconclusive [activator, partial curve, poor fit]",
C=C1C(=O)O[C@@H]2C[C@@H](C)[C@@H]3C=CC(=O)[C@@]3(C)[C@@H](O)[C@H]12,,inactive: -14.7%
CC(C)(C)c1ccc(C(=O)NC(=S)Nn2cnnc2)cc1,"inconclusive [activator, partial curve, poor fit]",
COc1ccc(C(C)(C)C)cc1NC(=O)CCCn1c(=O)oc2ccccc21,,inactive: -18.6%
